From paper PMC9381947 (Antiviral Research, 2022)

Test system: influenza A virus (IAV) H1N1
Test: Antiviral assay in MDCK cells
Conditions: 48 h, qRT-PCR, listed as PUG

O=C1O[C@@H]2[C@@H](OC(=O)c3cc(O)c(O)c(O)c3-c3c1cc(O)c(O)c3O)[C@H](O)O[C@@H]1COC(=O)c3cc(O)c(O)c(O)c3-c3c(O)c(O)c4oc(=O)c5c(c(O)c(O)c6oc(=O)c3c4c65)-c3c(cc(O)c(O)c3O)C(=O)O[C@@H]21 [Punicalagin, 2,3-hexahydroxydiphenoyl-gallagyl-D-glucose]
antiviral effect against H1N1: did not show detectable antiviral effects
